From PubChem BioAssay AID1347073 (National Center for Advancing Translational Sciences (NCATS), 2019)
The campaign covered roughly 45,000 compounds. About 200 (0.44%) were called active. About 7% were inconclusive and are not listed. Calls come from the whole dose curve; as a rule, active = well fitted activation curve with a large enough effect; inconclusive = small, poorly fitted or top-dose-only effect; inactive = no such curve, though single readings can be large or run the other way. This is one part of the list.

Assay: qHTS of TDP-43 Inhibitors: NCGC Sytravon Library Screen; note: 0% is about no effect; nearly all actives have a fitted effect of over 55% in size
Conditions: yeast TDP-43 toxicity rescue, BacTiter-Glo growth, 24 h; series mostly up to 46.1 µM; growth rescue (activation): at the top concentration
Procedure, shortened: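 TDP-43-expressing yeast, pregrown in raffinose, seeded at OD600 0.02 in galactose medium with compound for 24 hr at 30 deg C. Growth read by BacTiter-Glo luminescence, so rescue of toxicity appears as activation.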

SMILES	growth rescue (activation)
O=C(NCc1ccccc1)C1CCN(C(=O)c2cnn(-c3ccccc3)c2-n2cccc2)CC1	inactive: 4.31%
O=C(CSc1nnc(C2COc3ccccc3O2)o1)Nc1ccc(F)cc1Cl (configuration not stated)	inactive: 15.8%
Cn1c(=O)n(Cc2ccccc2)c(=O)c2c1nc1n2CCCN1C1CCCCC1	inactive: -14.2%
CCNC(=S)N1CCC(c2nc3cc(C)c(C)cc3[nH]2)CC1	inactive: -0.245%
O=C(CSc1nnc(C2CC2)n1C1CC1)c1ccc(Br)s1	inactive: 37%
O=C(CS(=O)CC(=O)Nc1cnc2ccccc2c1)Nc1ccc(Cl)cc1 (configuration not stated)	inactive: 4.87%
Cc1c(N2C(=O)/C(=C\c3ccc(N(C)C)cc3)N(C)C2=S)c(=O)n(-c2ccccc2)n1C	inactive: -1.6%
C=CCn1c(O)c(N=Nc2ccccc2)c2ccccc21	inactive: -7.32%
O=C(CSc1nnc2ccccn12)NC(=O)NC1CCCCC1	inactive: 8.69%
COc1ccc(NC(=O)COC(=O)[C@@H]2CCCN2S(=O)(=O)c2ccccc2F)c(OC)c1	inactive: 16.3%
Cc1ccc(CNC(=O)C2CCCN(c3nnc(-n4c(C)ccc4C)s3)C2)cc1 (configuration not stated)	inactive: 0.134%
CCS(=O)(=O)c1ccccc1C(=O)NC1CCCc2ccccc21 (configuration not stated)	inactive: 4.95%
Cc1nn(C)c(Cl)c1CN1CCN(CC(C)C)C(CCO)C1 (configuration not stated)	inactive: -3.14%
CCSc1nnc(NC(=O)CSc2sc3c(O)cc(=O)[nH]c3c2C#N)s1	inactive: -1.22%
CCN(Cc1ccccc1)C(=O)CCc1nnc(CCCc2ccccc2)o1	inactive: 20.2%
O=C(CCn1c2c(c3ccccc31)CCCC2)NNC(=O)c1ccc(Cl)c([N+](=O)[O-])c1	inactive: 9.27%
O=C(c1cn(-c2ccccc2)nc1-c1cc2ccccc2oc1=O)N1CCOCC1	inactive: 15.3%
S=c1nc(C2CCCCC2)[nH]c2ccccc12	inactive: 34.8%
Cc1ccc(N(C(=O)CCCC(=O)Nc2ccccn2)C(C(=O)NC2CCCC2)c2ccc(O)cc2)cc1C (configuration not stated)	inactive: -2.49%
CC(C)(C)NC(=O)NC(=O)CN1CCN(S(=O)(=O)c2ccccc2)CC1	inactive: 5.14%
O=C(CNC(c1ccccc1)c1ccccc1)Nc1ccccc1F	inactive: -14.3%
COc1cccc(C(=O)/C=C/Nc2ccc(S(=O)(=O)Nc3cnc4ccccc4n3)cc2)c1	inactive: -7.94%

SMILES	growth rescue (activation)
COc1ccc(CC2S/C(=N/N=C/c3ccc(O)cc3)NC2=O)cc1 (configuration not stated)	inactive: -5.75%
O=c1c2[nH]c3ccc(F)cc3c2nc2n1CCCS2	inactive: 12.8%
CCOc1ccc(-c2nc(CN(Cc3ccccc3)C[C@@H]3CCC(=O)N3)c(C)o2)cc1	inactive: 0.472%
O=C(NCCc1ccc(Cl)cc1Cl)c1cc([N+](=O)[O-])c[nH]c1=O	inactive: -5.72%
Cc1ccc(N=C2NC(=O)/C(=C/C=C/c3ccco3)S2)cc1C	inactive: -8.67%
Cc1cc(C(=O)OCC(=O)NCc2ccc3c(c2)OCO3)c2ccccc2n1	inactive: 4.43%
Cc1cc(F)ccc1S(=O)(=O)Nc1ccc(C(=O)N2CCCCC2)cc1	inactive: 4.64%
Cc1cccc(NCc2ccc(Br)cc2)n1	inactive: -6.6%
CCOC(=O)c1c2c3c(cccc3n(C)c1=O)C(=O)c1ccccc1-2	inactive: 8.33%
Cc1ccccc1CNC(=O)c1ccc2nc([C@@H]3O[C@H](CO)[C@H](O)[C@H](O)[C@H]3O)[nH]c2c1	inactive: -8.18%
CCCCCCCCc1nc(SCC(C)=O)n[nH]1	inactive: 17.3%
CC1(C)CC(=O)C2=C(C1)NC(SCC(=O)Nc1ccccc1)=C(C#N)C2c1ccco1 (configuration not stated)	inactive: 19.5%
Cc1cc(=O)oc2c3c(cc(OCC(=O)NC(C)C)c12)OC(C)(C)CC3	inactive: -12.4%
NS(=O)(=O)c1ccc(CCNC(=O)CN2CCN(c3ccccc3F)CC2)cc1	inactive: 14.1%
COc1ccc(OC)c(S(=O)(=O)N2CCCC(C(=O)NC3CC3)C2)c1 (configuration not stated)	inactive: -4.21%
COc1cccc(NC(=O)COC(=O)CCSc2ccccc2)c1	inactive: 13.7%
CCCC(C)(C)C(=O)N1CCC1(C)C(=O)NS(=O)(=O)c1ccc(Cl)cc1 (configuration not stated)	inactive: 0.7%
COc1cc(C)c(NC(=S)Nc2ccc(C)c(Cl)c2)cc1OC	inactive: -1.11%
O=C(CCCn1cnc([N+](=O)[O-])n1)Nc1cc(Cl)ccc1O	inactive: 10.5%
CCOC(=O)C1CCCN(C(=O)c2oc3ccccc3c2C)CC1 (configuration not stated)	inactive: 29.7%
O=C1c2ccc3c4c(ccc(c24)C(=O)N1c1cccc(O)c1)CC3	inactive: -24.6%
Cc1ccc2nc(N3CCN(c4ccccc4)CC3)c(C=O)c(=O)n2c1	inactive: -1.07%

SMILES	growth rescue (activation)
O=C(COC(=O)c1ccccn1)Nc1nc(-c2ccccc2)cs1	inactive: 0.916%
CNc1ccc2nnc(C(F)(F)C(F)(F)C(F)(F)F)n2n1	inactive: 12.4%
Cc1cc(C)c(C2=Nn3c(C)nnc3SC2C)cc1C (configuration not stated)	inactive: 9.91%
N#CCCN(C(=O)COC(=O)CSc1ccc(Cl)cc1)c1ccccc1	inactive: 16.6%
CCOC(=O)c1cnn(-c2ncnc3sc(CC)cc23)c1N	inactive: 15.1%
COc1ccc(S(=O)(=O)N2CCN(C(=O)NCc3ccc(C)cc3)CC2)cc1	inactive: 1.87%
CN(C(=O)COC(=O)CCC(=O)c1ccc(F)cc1)C1CCCCC1	inactive: 8.77%
COc1ccc(S(=O)(=O)NC(=O)C2(C)CCN2C(=O)c2ccc(C(F)(F)F)nc2C)cc1 (configuration not stated)	inactive: 4.86%
Cc1ccc(N2CC(C(=O)Nc3ccc(S(=O)(=O)Nc4nccs4)cc3)CC2=O)cc1C (configuration not stated)	inactive: -5.36%
O=C(CSc1nnc(NC(=O)c2ccccc2)s1)NC1CCCC1	inactive: -1.28%
CC(NC(=O)c1ccncc1)c1ccc(Cl)cc1Cl (configuration not stated)	inactive: -2.79%
O=S(=O)(Cc1ccccc1)N1CCN(c2ncccn2)CC1	inactive: 14%
Cc1ccc(NNC(=O)C(O)(c2cccc(C(F)(F)F)c2)c2cccc(C(F)(F)F)c2)cc1	inactive: 16%
CCOC(=O)C1C(c2ccccc2O)NC(=O)NC1(O)C(F)(F)F (configuration not stated)	inactive: 10.2%
O=C(COC(=O)c1ccc(Cl)nc1)Nc1ccc(N2CCCCC2)cc1	inactive: -8.91%
O=C(COc1ccc(Cl)cc1Cl)NCCCNC(=O)c1cnccn1	inactive: 2.52%
Cc1onc(-c2ccccc2Cl)c1C(=O)Nc1ccccc1O	inactive: -13.4%
Cc1ccccc1NCCC(=O)Nc1ccc(Cl)cc1	inactive: 15.9%
CC(=O)Nc1ccc2c(COC(=O)CC3Sc4ccccc4NC3=O)cc(=O)oc2c1 (configuration not stated)	inactive: -16%
COCCNC(=O)C(c1ccc(O)cc1)N(C(=O)CCC(=O)Nc1nccs1)c1cccc(C)c1 (configuration not stated)	inactive: 13.4%
O=C(O)c1cccc(NC(=S)N/N=C/c2cccnc2)c1	inactive: 5.01%
COc1ccc(N(C(=O)c2ccco2)C(C(=O)NC2CCCC2)c2cccs2)c(OC)c1 (configuration not stated)	inactive: 9.26%

SMILES	growth rescue (activation)
COc1cccc(C(=O)N2CCC(O)(c3cccnc3)CC2)c1	inactive: 4.07%
CN1CCNC(=O)C1CC(=O)NCCc1ccccc1F (configuration not stated)	inactive: 7.62%
CNC(=O)c1cccc2nc3ccccc3nc12	inactive: 12.5%
C/C(Sc1nnc(Cc2ccccc2)o1)=C(\O)c1ccccc1	inactive: 2.22%
CN(C(=O)CN1CCN(c2cc(-c3cccc4oc5ccccc5c34)ncn2)CC1)c1ccccc1	inactive: 2.79%
CC(C)Cn1c(N)c(C(=O)COC(=O)[C@@H]2CCCN2C(=O)c2cccs2)c(=O)n(C)c1=O	inactive: 6.21%
CC(=O)N[C@@H](Cc1c[nH]c2ccccc12)C(=O)OCC(=O)Nc1ccc2c(c1)OCO2	inactive: 5.27%
CCN(CC)C(=O)CSc1nc(N)c(C(=O)Nc2ccc(OC)cc2)s1	inactive: 22.8%
CCCCOCCCNC(=O)N[C@H](C(=O)O)C(C)CC (some centres not stated)	inactive: 1.86%
CSCCNCc1c(C(=O)N2CCOCC2)nc2c(C)cccn12	inactive: -6.07%
c1ccc2c(c1)nc(N1CCCCCC1)c1ccccc12	inactive: -22.2%
COc1ccc(-c2ccc3nncn3c2)cn1	inactive: -9.9%
Cc1ccnc(Nc2nc(-c3ccc(Cl)cc3)cs2)c1	inactive: 15%
COc1ccc(NC(=O)c2cc(C3CCCCN3S(=O)(=O)c3ccc(C#N)cc3)on2)c(C)c1 (configuration not stated)	inactive: 16%
COc1ccc(C/C(N)=N/OC(=O)CCc2ccccc2)cc1	inactive: -35.3%
Cc1ccc(S(=O)(=O)NC2CCCCC2)c(C)c1NS(C)(=O)=O	inactive: -46.5%
O=C1N(c2cccc(Cl)c2)C(c2ccccc2)N2CCCN12 (configuration not stated)	inactive: 7.3%
CCC(=O)Nc1cc(-c2nn(C)c(=O)c3ccccc23)ccc1N1CCOCC1	inactive: 12.1%
CNC(=O)c1ccc(=O)n(Cc2cccc(C(F)(F)F)c2)c1	inactive: 1.41%
CC(C)(C)c1cc(C(=O)C[n+]2ccc(C(=O)NCCCO)cc2)cc(C(C)(C)C)c1O	inactive: 30.9%
COc1cccc(OC)c1NC(=O)CN1CCN(C)CC1	inactive: -13.6%
CC(C)Cc1nnc(NC(=O)CCNC(=O)c2ccco2)s1	inactive: 8.56%

SMILES	growth rescue (activation)
CC(C)[C@H](NS(=O)(=O)c1ccc2c(c1)OCCO2)C(=O)OCC(=O)Nc1cc(Cl)ccc1Cl	inactive: 9.25%
CCOc1cc(/C=C/C(=O)Nc2ccc(C(=O)NCCN(CC)CC)cc2)ccc1OCC(C)C	inactive: 15.2%
CCCc1ccc(C(O)c2ncc(-c3ccc(C)cc3)[nH]2)cc1 (configuration not stated)	inactive: 12.9%
COCCN(CCOC)C(=S)Nc1cc(S(=O)(=O)N(C)C)ccc1C	inactive: 6.28%
NS(=O)(=O)c1ccc(NC(=S)N2CCN(c3cccc(Cl)c3)CC2)cc1	inactive: 19%
C[C@@H]1CCCCCCCCCCC1=O	inactive: -0.811%
CCCCn1c(N)c(N(CC)C(=O)c2c(C)noc2C)c(=O)[nH]c1=O	inactive: -6.05%
COc1ccc(NC(=O)c2oc3ccc(S(=O)(=O)N4CCOCC4)cc3c2C)cc1	inactive: 13.7%
CN(CCOc1ccc(Cl)cc1)CC(O)c1ccccc1 (configuration not stated)	inactive: 4.2%
COc1cccc(NC(=O)CN(C)S(=O)(=O)c2ccc3nc(C)sc3c2)c1	inactive: -1.05%
O=S(=O)(NC1CCCCC1N1CCOCC1)c1ccc(Cl)cc1 (configuration not stated)	inactive: -12.6%
COc1ccc(OC)c(CN2CCCC(C(=O)c3ccccc3SC)C2)c1 (configuration not stated)	inactive: 7.78%
O=C(O)C(Cc1ccccc1)N1C(=O)C2CCCCC2C1=O (configuration not stated)	inactive: -1.42%
O=C(CNC(=O)c1ccc(Cl)cc1Cl)OCc1cn2cc(Br)ccc2n1	inactive: 22.2%
Cc1cc(C)cc(-n2c(C)cc(/C=N/NC(=O)c3ccncc3)c2C)c1	inactive: 18.4%
Cc1ccc(NC(=O)C2CCN(C(=O)c3cccs3)CC2)cc1	inactive: 6.31%
CC(C)NC(=O)COC(=O)c1ccc(S(=O)(=O)N2CCCC2)cc1	inactive: 5.3%
COc1cccc(NC(=O)C2(C)CCCN2C(=O)C(C)C)c1OC (configuration not stated)	inactive: -4.72%
O=C(OCC(=O)N1CCOCC1)c1ccc(O)cc1	inactive: 4.6%
